Test results taken from PubChem BioAssay AID651711 (Broad Institute, 2012).
Hit rate of the full screen: of about 350,000 compounds, about 180 (0.051%) were called active. This list was built around the results that the source calls inconclusive (neither active nor inactive); the mix of calls is not that of the screen.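 Rule for the calls: active = mean replicate inhibition above about 25%, with every replicate also reaching it (limit read from the data, passing the limit was not always enough); inconclusive = only one of those two criteria met; inactive = neither criterion met.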

The molecules below were run against Protein disulfide-isomerase A6 (Homo sapiens) (UniProt Q15084) (assay: inhibitors of ERp5-driven insulin aggregation, primary screen, biochemical, turbidity, absorbance 650 nm, single point (AID 651711)). Details: 90 min, at 9.99 µM, hits give high values.
Chain of UniProt Q15084 (Q15084 whole entry, looked up): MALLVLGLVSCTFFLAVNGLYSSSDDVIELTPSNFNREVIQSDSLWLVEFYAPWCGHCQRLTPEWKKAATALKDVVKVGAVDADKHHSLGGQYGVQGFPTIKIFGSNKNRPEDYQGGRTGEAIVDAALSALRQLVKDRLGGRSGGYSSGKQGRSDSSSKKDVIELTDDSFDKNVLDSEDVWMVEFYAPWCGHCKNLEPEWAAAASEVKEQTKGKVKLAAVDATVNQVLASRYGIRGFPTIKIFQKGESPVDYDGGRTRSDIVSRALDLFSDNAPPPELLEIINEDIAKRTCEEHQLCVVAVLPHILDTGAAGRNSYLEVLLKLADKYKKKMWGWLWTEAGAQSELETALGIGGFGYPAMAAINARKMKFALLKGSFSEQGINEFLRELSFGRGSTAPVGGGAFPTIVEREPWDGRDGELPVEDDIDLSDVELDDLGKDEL

SMILES | inhibition
C[C@@H]1CCCCO[C@@H](CN(C)C(=O)CCCN(C)C)[C@H](C)CN([C@@H](C)CO)C(=O)c2cc(NC(=O)Nc3ccc(F)cc3)ccc2O1 | inconclusive: 35%
CCC(C)[C@H](NC(=O)[C@@H]1Cc2ccccc2CN1)C(=O)NCc1ccc(C)cc1 (stereo partly specified) | inactive: -2.11%
CC(=O)Cc1nsc(Nc2ccc(Cl)cc2)n1 | inconclusive: 35%
C[C@@H]1CN([C@@H](C)CO)S(=O)(=O)c2ccc(C3=CCCC3)cc2O[C@@H]1CN(C)C(=O)C1CCOCC1 | inactive: -0.0005%
CCOc1cc(/C=N/NC(=O)c2ccc(N(C)S(=O)(=O)c3ccccc3)cc2)ccc1OC | inconclusive: 55.6%
COc1ccc(C)cc1NC(=O)C(Sc1nnnn1C)c1ccccc1 (stereo unspecified) | inconclusive: 39.7%
C[C@@H]1CN([C@H](C)CO)C(=O)c2cc(NC(=O)Nc3cccc4ccccc34)ccc2O[C@@H]1CN(C)C(=O)Nc1cccc2ccccc12 | active: 33%
Cc1cccc(S(=O)(=O)N2C[C@@H](O)COC[C@H]3O[C@H](CC(=O)NCCCN4CCOCC4)CC[C@@H]32)c1 | inactive: -0.278%
COC(=O)C[C@H]1C[C@@H]2c3cc(NC(=O)Cc4ccncc4)ccc3O[C@@H]2[C@@H](CO)O1 | active: 59.9%
O=S(=O)(NCCc1ccc(F)cc1)c1cc(C(F)(F)F)ccc1Br | inactive: 2.16%
CO[C@H]1CN(C)C(=O)c2cc(NC(=O)CC(F)(F)F)ccc2OC[C@H](C)N(C(=O)C2CC2)C[C@@H]1C | active: 42.3%
O=C(Cc1cccnc1)N1CC(=O)N2[C@H](CO)[C@H](c3ccc(C#CC4CCCCC4)cc3)[C@H]2C1 | inactive: -0.299%
COc1ccc(C(=O)N2CCCCC2)cc1S(=O)(=O)Nc1cccc(C(=O)O)c1 | inactive: 3.74%
C[C@@H]1CN([C@H](C)CO)C(=O)c2cc(NS(=O)(=O)c3ccc(F)cc3)ccc2O[C@@H]1CN(C)C(=O)Nc1cccc2ccccc12 | inactive: 13.7%
O=C(CSc1ncc(S(=O)(=O)c2ccccc2)c(=O)[nH]1)Nc1ccccc1Cl | inconclusive: 36.5%
CC1(C)C2CCC1(C)C(OC(=O)C[n+]1ccccc1)C2 (stereo unspecified) | inconclusive: 37.2%
COc1ccc(NC2(c3ccccc3)OC(=O)c3ccccc32)cc1 (stereo unspecified) | inconclusive: 38.3%
Cc1ccc(S(=O)(=O)N[C@@H]2CC[C@H](CCNC(=O)c3ccc4c(c3)OCO4)O[C@@H]2CO)cc1 | inactive: -4.11%
O=C(C[C@H]1C[C@@H]2c3cc(NC(=O)CC4CC4)ccc3O[C@@H]2[C@@H](CO)O1)NCc1ccc(-c2ccccc2)cc1 | active: 62.6%
Cc1cc(C)c2c(c1)/C(=N/NC(=O)c1ccc(O)cc1)CCC2 | inactive: 2.56%
COc1cc(/C=C/C(=O)O)cc(S(=O)(=O)Nc2cc(Cl)c(Cl)cc2Cl)c1OC | inconclusive: 45.8%
Cc1ccc(Nc2nc3ccccc3s2)cc1 | inconclusive: 34.4%
O=C(Nc1ccc(F)c(Cl)c1)C1CC(=O)n2c(nc3ccccc32)N1 (stereo unspecified) | inconclusive: 44%
Cc1ccc(S(=O)(=O)Nc2ccc3c(c2)C(=O)N([C@H](C)CO)C[C@@H](C)[C@H](CN(C)Cc2ccc(-c4ccccc4)cc2)O3)cc1 | inactive: -9.68%
CCCC#Cc1cnc2c(c1)C(=O)N([C@@H](C)CO)C[C@H](C)[C@H](CN(C)Cc1cccnc1)O2 | inconclusive: 38.3%
Cc1ccc(C(C)C)cc1OCCn1cncn1 | inactive: 0.119%

SMILES | inhibition
C/C=C/c1ccc2c(c1)O[C@@H](CN(C)S(C)(=O)=O)[C@H](C)CN([C@@H](C)CO)S2(=O)=O | active: 68.1%
C[C@@H]1CCCCO[C@H](CN(C)Cc2ccc3c(c2)OCO3)[C@@H](C)CN([C@@H](C)CO)C(=O)c2cc(NS(C)(=O)=O)ccc2O1 | inconclusive: 42.2%
COc1ccc(NC(=O)C(c2cccc3ccccc23)n2c(=O)c(-c3ccco3)nc3ccccc32)cc1 (stereo unspecified) | inconclusive: 32.3%
COc1ccc(/C=C/C2=NN(Cc3ccccc3)C(=O)CC2)cc1 | inconclusive: 43.8%
COc1ccc2cc(C(=O)CS(=O)(=O)c3ccc(Cl)cc3)c(=O)oc2c1 | inconclusive: 35%
CNC[C@H]1Oc2c(N)cccc2C(=O)N([C@@H](C)CO)C[C@H]1C | active: 85.8%
O=C(Nc1ccc(Br)cc1)c1cc2ccccn2n1 | inconclusive: 34.5%
Cc1ccc2[nH]c(=O)c3cc(C(=O)N(C)C4CCCCC4)sc3c2c1 | inactive: 2.4%
CC(C)CCNC(=O)CCCCn1c(=O)[nH]c2ccsc2c1=O | inconclusive: 36%
Cc1ccc(C(=O)O)cc1NC(=S)NC(=O)c1ccc(-c2ccc(Cl)cc2)o1 | inconclusive: 27.8%
O=C(Nc1ccc(F)cc1)N[C@@H]1C[C@@H]2O[C@@H](CO)CC[C@@H]2O[C@@H]1CCc1ccc(-c2ccccc2)cc1 | inactive: 3.33%
O=C(/C=C/c1ccnc2ccccc12)c1cccs1 | inconclusive: 38.7%
CCN(CC)S(=O)(=O)c1ccc2c(c1)N(CC(=O)NCCN1CCOCC1)C(=O)CO2 | active: 27.9%
COc1ccc(/C=N/NC(=O)c2cc(OC)c(OC)c(OC)c2)cc1CN1CCc2cc(OC)c(OC)cc2C1C (stereo unspecified) | inconclusive: 30.6%
Cn1c(CNc2ccccc2O)nc2ccccc21 | inactive: 9.28%
O=C(O)c1cc2ccccc2cn1 | inactive: 0.0435%
COC(=O)C[C@@H]1C[C@@H]2c3cc(NC(=O)Cc4ccncc4)ccc3O[C@@H]2[C@H](CO)O1 | active: 35.9%
CC(C)(O)CC[C@@H](O)[C@](C)(O)C1CC[C@@]2(O)C3=CC(=O)[C@@H]4C[C@@H](O)[C@@H](O)C[C@]4(C)C3CC[C@]12C (stereo partly specified) | inconclusive: 59%
C/C(Cn1cnc([N+](=O)[O-])n1)=N\NC(=O)c1ccc(O)cc1O | inconclusive: 43.5%
O=S1(=O)CCN(C(CO)c2ccccc2)CC1 (stereo unspecified) | inconclusive: 37%
O=C(NCc1ccncc1)c1cn(-c2ccccc2)nc1-c1cccnc1 | inconclusive: 37.1%
CCOC(=O)N=Nc1c(O)n(C)c2ccccc12 | inconclusive: 29.4%
CC(=O)Nc1cc(-c2ccccc2)cn2c(-c3cccc(C(C)=O)c3)cnc12 | inconclusive: 29.9%
CC1Cc2ccccc2N1S(=O)(=O)c1cccc(C(=O)NCc2ccncc2)c1 (stereo unspecified) | inconclusive: 26%
CC(CC(=O)Nc1ccc2c(c1)OCO2)c1ccccc1 (stereo unspecified) | inconclusive: 52.2%
CCS(=O)(=O)c1ccc(O)c(NC(=O)NC2CCCCC2)c1 | inactive: 0.0595%

SMILES | inhibition
COc1ccc(S(=O)(=O)N(C)CC(=O)Nc2cccc(C(C)=O)c2)cc1 | inconclusive: 50.5%
CC(C)(C)/C(O)=C/c1nc2cc(Cl)ccc2oc1=O | inconclusive: 37.9%
CC12CC3CC(C)(C1)CC(C(=O)Nc1nncs1)(C3)C2 | inconclusive: 37.3%
O=C(CCN=C1NS(=O)(=O)c2ccccc21)Nc1ccc(F)cc1Cl | inconclusive: 44.3%
O=C(NN1C(=O)/C(=C/C=C/c2ccccc2)SC1=S)c1ccncc1 | inconclusive: 47.2%
CC1(C)C2CCC1(C)C(OC(=O)CNc1ccccc1)C2 (stereo unspecified) | inconclusive: 36.5%
COc1ccccc1-c1ccc([C@H]2[C@H](C#N)N(C(=O)C3CC3)[C@H]2CO)cc1 | inconclusive: 41.5%
C[C@@H]1CN([C@@H](C)CO)C(=O)Cc2cc(NC(=O)Nc3ccc(C(F)(F)F)cc3)ccc2O[C@@H]1CN(C)Cc1ccc(Cl)c(Cl)c1 | active: 49.9%
O=C(O)CC1S/C(=N/N=C/C2CC=CCC2)NC1=O (stereo unspecified) | inactive: -6.22%
CC(=O)C1=C(C)NC(SCC(N)=O)=C(C#N)C1c1ccco1 (stereo unspecified) | inconclusive: 33.6%
Cc1ccc(Cl)cc1NC(=O)Cn1cc(C(F)(F)F)cc(Cl)c1=O | inconclusive: 46.3%
O=C(CN1C(=O)NC2(CCCC2)C1=O)Nc1cc(C(F)(F)F)ccc1N1CCCCC1 | active: 34.2%
CCC(=O)N1C[C@H](C)[C@H](OC)CN(C)C(=O)c2cc(NC(=O)NC(C)C)ccc2OC[C@H]1C | inactive: 1.74%
Cc1cc(CN(C)C(=O)CC2C(=O)NCCN2CC(c2ccccc2)c2ccccc2)on1 (stereo unspecified) | inactive: -16.3%
COc1ccc(NC(=S)Nc2ncccc2C)c(OC)c1 | inconclusive: 38.9%
COc1ccc(CSc2nc(C)[nH]c2[N+](=O)[O-])cc1[N+](=O)[O-] | inactive: 3.18%
CCNC(=O)Nc1ccc2c(c1)C(=O)N(C)[C@H]1CC[C@@H](CC(=O)Nc3ccccc3)O[C@@H]1CO2 | inactive: -3.78%
Cc1ccc(S(=O)(=O)C=CS(=O)(=O)c2ccc(C)cc2)cc1 | active: 31.5%
COCC(=O)Nc1ccc2c(c1)OC[C@@H](C)N(Cc1cccc(F)c1)C[C@@H](C)[C@H](OC)CN(C)C2=O | inconclusive: 43.3%
COC(=O)C1=C(C(=O)OC)[C@]2([C@H]3CCCCN[C@@H](Cc4ccccc4)C(=O)N3Cc3ccccc3)C=C[C@H]1O2 | inactive: -3.78%
COc1ccc(NC(=O)Nc2ccc3c(c2)C(=O)N([C@@H](C)CO)C[C@@H](C)[C@H](CN(C)Cc2ccc(C(=O)O)cc2)OCCCC[C@H](C)O3)cc1 | inactive: 9.15%
Cc1cccc(-c2ccc([C@H]3[C@@H](CO)N4CCCCN(S(=O)(=O)c5ccccc5C)C[C@H]34)cc2)c1 | inactive: -6.58%
Cc1ccc(C(C)C)c(OCCNCCc2ccccc2)c1 | inconclusive: 27.3%
CCN(CCN(C)C)C(=O)c1ccc2c(c1NCCO)C(=O)c1ccccc1C2=O | inconclusive: 27.9%
